Assay results from the supplement of paper PMC10126150.
Sequences with one replicate were seen in a single cluster, so their values are uncertain.

Tested on: ATP
Experiment: switch fluorescence ratio, 500 uM ATP over buffer (Cy3 cluster intensity, sum of 5 cycles each) (fold (ratio)); higher = stronger signal-on switching upon ATP binding; sequences stand for … in TCGTCGGCAGCGTCAGATGTGTATAAGAGACAGTTTTTTTTTTTTTTTTTTTTTTTTT…TC
Settings: aptamer strand: ATP DNA aptamer (quencher-CACCTGGGGGAGTATTGCGGAGGAAGG + anchor), 100 nM annealed; ATP concentration: 500 uM; one replicate
Procedure, shortened: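 Five buffer/ATP imaging cycles were run on Cy3-labelled switching-strand clusters on a modified Illumina MiSeq flow-cell, with NaOH stripping and re-annealing between cycles. In each cycle, clusters annealed to 100 nM quencher-labelled ATP aptamer were imaged in selection buffer, then after 15 min with 500 uM ATP at 22 °C. Per cluster, the fluorescence ratio is summed target-cycle over summed buffer-cycle Cy3 intensity, averaged per switch-domain sequence. Only clusters within 100-1000 RFU were kept.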
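Also: ATP exposure 15 min at 22 °C before imaging.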

Sequence	switch fluorescence ratio
TTACGAGACA	1.16
CTGGTGTGG	0.958
AGAGAATGT	0.976
CCGTTGGCGG	0.975
TCGCATCATA	1.21
GCTTAGGGGC	1
ACTCAGCTTA	1.62
TCGCGTGCCT	0.941
ATTCAGGATA	0.989
CCAGGATACC	1.05
TGGGGGCCGC	1.03
ATTAAGTCAC	1.11
GTGGTTTAGT	0.997
TAATACTAGT	1.01
TCGAAATATG	1.01
GGTCTCACTC	1.05
TCGCCCTGTA	1.02
TACTTTGTCC	1.03
GCATCGTATC	1.16
AAATAGACTC	1.05
TAGCCATAGC	0.986
ATTGGTATG	0.977
TAGGAGCGGG	1.14

Sequence	switch fluorescence ratio
TTCCTCTGCG	2.31
TATCCATTGG	1.02
ACTATAGACA	1.05
ATCATGCTAT	1.02
GATCTCTCGA	1.01
ACCTGGGGG	0.987
CCGGTCACTC	1.62
CCGATTACTA	1.11
TTCTCTGCTG	1.18
TGCACTACAG	1.01
AGCCTGTTGG	0.972
CGCTGGGCGC	0.982
TTGAATATT	1.01
AGTAATCAC	1.15
GCGGTAACCG	0.98
GACTCATGCA	1.29
TAATGACGGT	0.985
GCCCGACACC	1.07
CGGGGTAGTA	0.972
TATCTGAGAG	0.941
GATACGCTTG	1.03
CGATGAGCAT	1.06
GCCCGGAGTC	1.09

Sequence	switch fluorescence ratio
GGCCAGCCCG	1.01
AATAAACATG	1.04
GTGTTATAA	1.05
CGTTAGCGTG	0.992
CTAAATACGT	1.07
TGATCAAGCT	1.03
CCTTAGGCCT	1.04
GCGGGGCCCT	1.02
TTACGTCTAA	1.09
TGCCCCACAT	1.02
CCAACTCTCC	1.26
TTTTTAACA	1.04
AGGGCACAGG	1.09
TACTGCGGGC	1.14
AAGCTGGATT	0.947
TCAGTGTTAA	1.01
CGGGCTTCCC	1.01
TGGACGCATC	2.6
GGGAAGATAG	1.02
TACCACTTGC	1.03
TCTCTTATAG	0.961
TAAGTCGCTG	1.01
TGATCTACCA	1.02

Sequence	switch fluorescence ratio
ATATTGGCTG	1.02
GGCCGGAGAA	0.959
GTCGTTGCGC	0.979
ACATTTTCAT	1.03
TTCGAGGGCA	1
TCGGTTGGCC	0.981
GATCCCCGCA	1.25
TTCCGGTTCG	1.02
TTGCGCGACA	1
CATGTGTCTG	1.04
CTTGAAATGG	1.01
CTAAGGATTG	0.958
TCGCGCTGTT	1.03
GGCTGTTAGT	0.946
CGGGCGGCGT	1.07
AAAGCTGTAT	0.974
CGTCCCTCTC	1.28
ATATCTGTAG	0.987
GCATGTGATA	0.988
CCGAGTTACT	2.58
ACGAATTTTG	0.98
AAGGACCGCC	1.17
GGATTTATAG	0.997

Sequence	switch fluorescence ratio
TTTCAGAAGT	1.13
GTCGTAGCTA	1.06
GCGCTACTTA	1.08
CCCCGACTCA	1.57
AGGTTCACGA	1.03
GGGGGTAAAT	1
ATTTGGGGG	0.962
CGCCGGGAAA	0.975
TTCCCTTAAG	1.01
CTCGCCGCTC	1.45
CGTAATTGTG	1.08
TACGGTGTTA	1.07
CCATGTTGTT	0.973
TATCTAGAGC	1.02
ACCCTATAGC	1.16
ACGTGTATCC	1.06
TGGATGCGGA	1
GGACTGGGG	1.05
CCGTGGAGGT	1.01
GAGACGCGAT	1.73
ACTTAACTAT	1.11
GGTGGGAAAG	1.01
GGGTAAGTCC	0.999

Sequence	switch fluorescence ratio
GATTCAGTGC	1.06
CGCCGGCAGC	1.15
GCCGTCTTAG	0.966
GGTTGTGGG	0.983
CGCCTTATTC	1.1
TGTAGTGGTT	1.04
AGTGATTAAT	0.968
GTGCCCGGCG	1.05
GATGCGTTCC	1.7
AATTTCAGTT	1.02
ACCGGTGG	0.95
GGTAGCCTTC	1.04
AAGTCTAGAC	0.982
AAGCAGTGTC	0.931
GAGCCTCAGG	1.08
ACTCTATCAC	1.08
GTGCGGCGGA	1.02
TAGAGTTATA	0.998
AACAGAGAG	0.961
AAACTTAGGC	0.959
ATGGGGCGAG	1.01
CAGGTTCGTC	1.03
GCGCAGAAGT	1.09

Sequence	switch fluorescence ratio
AGAAAAGCCG	0.952
ACTTTTCAAG	1.04
CGTCGCCATT	0.93
TGCAGGTGGG	0.982
TGTGGCTTAG	0.996
TCCTTCGAAG	1.25
GAACTATGCC	1.02
TCTTTGGCCC	0.984
AACATTTTT	1.3
CGATATGAGT	1.02
ACACGGATGC	1
AAATGGGCGC	1.02
TGTTAAGGAT	0.945
AGACACGGT	1.01
TATATCGGCG	0.957
GGCGCCTAGG	1.01
GGAGGCTTGT	0.953
TGAGTCAAGT	1.03
AGATTAAGA	0.994
